This note sets out measurements from patent US9745365B2, “Anti-influenza B virus hemagglutinin antibodies and methods of use” (priority 2014, dated 2017).

The structures appear in SMILES notation. Like-named read-outs stand apart in the source and are kept apart here.

Assay [1] has as its system influenza B virus B/Victoria/2000.
For assay [2] the test system is unchanged. Conditions: by day 11; 2 mg twice daily (BID) for five days.
The test system is the same in assay [3]. Conditions: by day 9 or 10; 4xLD100; treatment from 48 hours post infection.

A word on the mortality: it is the percentage killed. Consider `CCOC(=O)C1=C[C@@H](OC(CC)CC)[C@H](NC(C)=O)[C@@H](N)C1` [oseltamivir phosphate], for which the “protection compared to vehicle control treated animals” value in assay [1] (10, 30 or 100 mg/kg BID beginning 72 hours post infection) is listed as “some protection”. Besides, the mortality in assay [1] (by day 11, even at the highest dose (10, 30 or 100 mg/kg BID beginning 72 hours post infection)) turned out to be 100%; in assay [2], 100%; in assay [3], 100%.
